The source holds more than one record for some entries. They are shown here; other results are not.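 The calls were made as follows: active = compounds with IC50 below 20 µM; inactive = the rest.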 There may be further records. Values given together are repeated measurements (runs, samples, wells, individuals or studies). Marks in square brackets tell the records apart. Letters hold for one entry only.
Target: Type-1 angiotensin II receptor (Homo sapiens) (UniProt P30556)
Test: AT1 receptor antagonists, beta-arrestin recruitment, SAR follow-up, selectivity assay for APJ antagonist project, cell-based, CHO-K1 PathHunter, luminescence (AID 488810);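 also: agonist challenge with angiotensin II at 50 nM final near its EC80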
Details: CHO-K1 AGTR1 PathHunter beta-arrestin, antagonist mode

Compound: Cc1ccc(N=C2C(=O)Nc3ccccc32)cc1
- IC50: 17.5 µM [sample A] and inactive [sample B]

— PubChem BioAssay AID488810 (Sanford-Burnham Center for Chemical Genomics, 2010)
